# The full ranking holds about 33,000 sequences; the median of “E-score (-0.5 to 0.5)” is about -0.054, and the highest 2% start at about 0.35. The list shows a part of the results.
# Biological target: T1, Stb5 (UniProt P38699)
# T1 sequence: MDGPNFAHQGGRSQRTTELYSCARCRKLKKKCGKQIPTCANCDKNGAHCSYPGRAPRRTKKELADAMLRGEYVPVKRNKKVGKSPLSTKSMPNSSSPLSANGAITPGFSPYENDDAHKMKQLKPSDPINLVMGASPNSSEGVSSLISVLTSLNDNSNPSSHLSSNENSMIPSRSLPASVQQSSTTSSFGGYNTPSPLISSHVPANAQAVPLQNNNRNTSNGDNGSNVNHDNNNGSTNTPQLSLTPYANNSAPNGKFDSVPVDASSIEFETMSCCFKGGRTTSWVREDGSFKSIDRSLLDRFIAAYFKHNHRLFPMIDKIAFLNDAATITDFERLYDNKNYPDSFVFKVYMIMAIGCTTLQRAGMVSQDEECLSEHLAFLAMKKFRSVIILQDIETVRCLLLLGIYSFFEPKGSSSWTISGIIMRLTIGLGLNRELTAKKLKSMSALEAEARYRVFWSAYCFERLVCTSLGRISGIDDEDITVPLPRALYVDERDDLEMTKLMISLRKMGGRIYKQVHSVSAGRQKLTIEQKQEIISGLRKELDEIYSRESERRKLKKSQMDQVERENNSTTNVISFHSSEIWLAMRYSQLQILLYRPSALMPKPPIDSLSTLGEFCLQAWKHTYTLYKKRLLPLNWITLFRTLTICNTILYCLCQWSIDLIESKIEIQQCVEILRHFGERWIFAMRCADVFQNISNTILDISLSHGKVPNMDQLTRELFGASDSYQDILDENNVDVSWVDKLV
# Assay: PBM E-score (8-mer binding enrichment) (E-score (-0.5 to 0.5)); higher = stronger / more preferred TF binding; most listed sequences are background and not binding sites
# Conditions: protein concentration: 200 nM; construct: GST-full length
# Description: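 Universal 'all 10-mer' protein binding microarrays (Agilent AMADID 015681) probed with GST-tagged S. cerevisiae TFs (full-length or DBD) made by in vitro transcription/translation (PURExpress), about 100-200 nM. Bound TF was detected with fluorescent anti-GST. Each ungapped 8-mer (which stands for itself and its reverse complement) is scored by the PBM enrichment score (E-score), a modified Wilcoxon-Mann-Whitney statistic from -0.5 to +0.5, computed with the Universal PBM Analysis Suite. Scale: above 0.35 generally sequence-specific binding.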
row,Sequence,PBM E-score
1,CCGAAACA,0.131
2,ATTCCTCA,-0.185
3,ACACGTCA,-0.207
4,CTATCAGC,0.0418
5,CCATTGAA,-0.202
6,GGATCGTA,-0.0681
7,GTCGGCTA,0.142
8,GAGGGATA,-0.119
9,CTAACCCC,0.35
10,GGATCTAA,0.306
11,CGCTTACG,0.123
12,ATTACGTG,-0.159
13,ACACTCCA,-0.225
14,AAATCTCT,-0.219
15,GTAACTAC,0.109
16,CGACAGAC,-0.0246
17,CGGAGGCA,0.25
18,AGGTACAA,-0.28
19,CGAAGCCA,-0.199
20,ATTCCGAC,0.254
21,GCGCCTTA,0.0498
22,AACCACAA,-0.0375
23,AGCAATTA,-0.0401
24,AATGACTG,-0.262
25,AACTGAGG,-0.317

row,Sequence,PBM E-score
1,GGTGAACA,-0.192
2,ACGCAATC,-0.00211
3,ACGTTCCA,0.0356
4,AACTAGGT,0.116
5,CCTGGACG,-0.0351
6,CTTGGCTA,-0.364
7,CCACCCTC,-0.0697
8,CCCAGGAA,-0.286
9,ACGTTGCA,-0.249
10,GAAGACGA,-0.0433
11,ATTCGAAT,-0.0708
12,ATGCCGAA,0.255
13,AGTGGACG,-0.012
14,ACTATTTG,0.00075
15,GACCCCGC,0.391
16,AACCTGTA,-0.133
17,AAGTCTAT,-0.164
18,CATTTGGG,0.0668
19,CAAAGGAA,-0.195
20,CGCTATTA,0.357
21,AGGTATCG,0.11
22,CTGGGGTC,-0.163
23,GACATCTC,-0.0802
24,AAGAGGTA,0.191
25,TATGCGAA,-0.048

row,Sequence,PBM E-score
1,CGTTGTAG,-0.0209
2,AACGCTTA,-0.178
3,CTTAGGCA,-0.165
4,ACCGTCAC,0.223
5,ACCTGCTC,-0.0755
6,CCCCACTC,-0.0524
7,AGCTGGCG,0.0815
8,TAGAGTGA,-0.0586
9,CATGTAAC,0.00619
10,AGACTAAT,0.0139
11,ACCAGATA,-0.0521
12,CACCAATA,-0.00716
13,GCAATTCA,0.0191
14,GAGCCGTA,0.015
15,CGCACGTC,0.131
16,AAAAACAG,-0.202
17,AGGCAAAT,0.048
18,AGCAATAA,-0.216
19,GACTTGCA,0.0764
20,AACGGAAC,0.18
21,ATGCATGC,-0.0833
22,TCGACCCA,-0.256
23,AGATCGCT,-0.0278
24,CTCGCTAA,0.106
25,ATTCAAAT,-0.195

row,Sequence,PBM E-score
1,ATTACGGG,0.157
2,AGTTGTAT,-0.0451
3,TAAGATCA,-0.176
4,GAATATGC,0.225
5,GCAAGCCA,-0.233
6,GAGCGTTA,-0.0174
7,CTACGGAC,0.252
8,GATACGGA,0.243
9,ATTGGCAC,-0.242
10,AGACACCA,-0.13
11,CCTGTTGA,-0.0723
12,AGAGTACA,-0.0908
13,ACCCCGCA,0.382
14,ATTCTCTG,-0.214
15,AGTTATCA,-0.044
16,CGCCTCCG,0.15
17,GAGCTATA,0.0873
18,AGAACTAT,-0.0201
19,TGTATCAA,-0.0244
20,ACCCGAGC,0.0806
21,GCCAGACA,-0.0977
22,AGTGCTGG,-0.245
23,ATACCGGG,0.332
24,CTACTGAC,-0.111
25,GGTGTCAC,0.23

row,Sequence,PBM E-score
1,AGGCGAGG,-0.296
2,ACAAACTG,-0.197
3,ATGTTATC,0.114
4,CGGGAAGA,0.207
5,AGCTTACG,-0.00012
6,CCCACCTC,-0.103
7,GAGACAGC,-0.026
8,GCCGCTGA,0.138
9,AATGCTGA,-0.277
10,GTATAAGA,0.0123
11,GACCCTCA,-0.169
12,ATATACGC,0.156
13,CGAAGTCC,0.238
14,TGCCCGCA,0.0902
15,CGGAGACG,0.166
16,CGCCACTA,0.0725
17,CGAACTGA,-0.184
18,GAACTCCA,-0.201
19,TCCACAGA,-0.209
20,CGCCTAAG,0.136
21,ATCGTGCG,0.0143
22,CCAAGTCG,-0.105
23,GCAGATAA,-0.077
24,AATTATGA,0.168
25,CAGAGAAG,-0.183

row,Sequence,PBM E-score
1,GGAATAGA,-0.0516
2,AAGGGTAT,0.0975
3,GAAGTTGA,-0.0652
4,CGACCGAA,0.122
5,AGATCTAA,-0.128
6,AGAGTGCG,-0.00597
7,GCCCGTAA,0.165
8,ACGAGAGT,-0.125
9,CAATCGAC,-0.198
10,AGGTTTCC,-0.302
11,AAAGCTGA,-0.0776
12,AGCTTAGC,-0.0499
13,GTTATTTA,0.14
14,ATGAATAG,0.0375
15,AGAGGAAC,-0.176
16,CTCCTCCA,-0.19
17,GTGAAAAA,0.0826
18,CCCTTAGG,-0.26
19,AGCGTTAG,0.0119
20,ATGAACAG,-0.141
21,ACTGACAG,-0.138
22,CAGGCGTC,-0.0392
23,CCATAATC,-0.146
24,AGGCTGAC,-0.287
25,ATGCCGTG,0.144

row,Sequence,PBM E-score
1,AAGCTAGC,-0.0562
2,ATGCCGAC,0.386
3,GCCGCCGC,0.391
4,ACCTCTCA,-0.171
5,ATGGGGAC,-0.0962
6,CTACTAAC,-0.105
7,CAAAGACG,0.0984
8,AACGCCAC,-0.0588
9,CATGATTA,-0.086
10,ACTACCCG,0.0662
11,AAAGCAGC,-0.0282
12,CTCATCGA,-0.281
13,CAAGACAG,-0.264
14,CAGCAATG,-0.255
15,AGACGGTG,0.296
16,CTACCTTC,-0.072
17,ACGAGTTC,-0.121
18,CCCAGCGA,-0.285
19,ACACAGAT,-0.266
20,GGCCAACA,-0.0714
21,GCGGATCC,0.0794
22,CCACAAGG,-0.161
